In the supplement of paper PMC12067230 one finds amyloid nucleation score data, which are given here for 102 sequences.

Single values of this set are uncertain.
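Note: [psi-pin-] Saccharomyces cerevisiae expressing SupN fusions, induced by 100 µM Cu2SO4, selected 7 d at 30 °C without adenine and uracil, scored by deep sequencing of output versus input.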

One data set is described as follows: amyloid nucleation score relative to library mode (yeast Sup35 reporter selection) (log enrichment difference); higher = more amyloid nucleation; sequences are the first 22 residues of the Bri2 peptide extended by up to 12 random residues. Particulars: random library (experiment): 1;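 active = nucleation score significantly above 0 at FDR 0.05; inactive = not significantly above 0 or absent from output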. On the procedure: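 Random C-terminal extensions of the 22-aa Bri2 peptide by 12 NNK codons; premature stops give shorter extensions. Peptides were fused to the Sup35 nucleation domain in S. cerevisiae [psi-pin-] and selected on -ADE-URA plates for 7 d at 30 °C. The nucleation score is log(output/input), centred to the mode of each of 3 independent libraries (1 input, 3 technical output replicates), with duplicates merged. Sequences absent from the output ('random_non_nuc') were imputed with the library mode value, so they are given as censored (<). Nucleators are scores significantly >0 at FDR 0.05.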
Regarding EASNCFAIRHFENKFAVETLICCEPGHRSRVASL, the amyloid nucleation score result was “inactive”.
The same measure, in the same setting: in the case of EASNCFAIRHFENKFAVETLICCESELNHVCSST it was “inactive”.
The same measure, in the same setting: the figure for EASNCFAIRHFENKFAVETLICCESTCMSWVLRT is 6.35; for EASNCFAIRHFENKFAVETLICCETDI it is “inactive”.
For the sequence EASNCFAIRHFENKFAVETLICCEWLGLYANAAL, the amyloid nucleation score worked out at 2.88.
The same measure, in the same setting: in the case of EASNCFAIRHFENKFAVETLICCFALVRESEG it was 7.82.
As for EASNCFAIRHFENKFAVETLICCFERLGSIERGW, the amyloid nucleation score was 2.98.
The same measure, in the same setting: the figure for EASNCFAIRHFENKFAVETLICCFFYPLACHCNG is 6.56; for EASNCFAIRHFENKFAVETLICCFHRCLLYDAGD it is 3.61; for EASNCFAIRHFENKFAVETLICCFIMTS it is 7.26.
The same measure, in the same setting: in the case of EASNCFAIRHFENKFAVETLICCFKISLW it was 6.62; in that of EASNCFAIRHFENKFAVETLICCFKKSEDVSEEK, 1.18; in that of EASNCFAIRHFENKFAVETLICCFKVL, 5.3.
Turning to EASNCFAIRHFENKFAVETLICCFLCISDRRVGV, the amyloid nucleation score stood at 6.64.
Same read-out and setting: the figure for EASNCFAIRHFENKFAVETLICCFLGTPNLAMM is 7.92; for EASNCFAIRHFENKFAVETLICCFMGGRSVCVPG it is 3.79.
The same measure, in the same setting: the entry for EASNCFAIRHFENKFAVETLICCFNDVLIRAHLG is “inactive”; for EASNCFAIRHFENKFAVETLICCFNYI it is 8.26.
For EASNCFAIRHFENKFAVETLICCFPVVMVAWMRR, the amyloid nucleation score result is “inactive”.
On the same count and under the same terms, the figure for EASNCFAIRHFENKFAVETLICCFR is 7.15; for EASNCFAIRHFENKFAVETLICCFWGPHDSRPCW it is 7.64; for EASNCFAIRHFENKFAVETLICCFYCSCVTGW it is “inactive”.
The same measure, in the same setting: in the case of EASNCFAIRHFENKFAVETLICCFYTVGK it was 8.41; in that of EASNCFAIRHFENKFAVETLICCGAQALGNGRTL, 7.21.
Regarding EASNCFAIRHFENKFAVETLICCGAQVLWLWKVS, the amyloid nucleation score was 7.5.
In the case of EASNCFAIRHFENKFAVETLICCGARWCASWGSE, the amyloid nucleation score came to 8.6.
Sequence EASNCFAIRHFENKFAVETLICCGDELSNEVVIR came in with an amyloid nucleation score of 6.12.
The sequence EASNCFAIRHFENKFAVETLICCGDSSQCSWHTT registered an amyloid nucleation score of 7.93.
The same measure, in the same setting: the figure for EASNCFAIRHFENKFAVETLICCGDVRQLDKLCR is 3.75; for EASNCFAIRHFENKFAVETLICCGFKPRGSMVGR it is 7.57; for EASNCFAIRHFENKFAVETLICCGGCTRDWHGPG it is 8.38.
EASNCFAIRHFENKFAVETLICCGGQTMTYVSWA came in with an amyloid nucleation score of 7.99.
Consider EASNCFAIRHFENKFAVETLICCGKLSLDDSGCG, for which the amyloid nucleation score stood at 7.86.
Same read-out and setting: in the case of EASNCFAIRHFENKFAVETLICCGLAPRHLVLSD it was 5.36; in that of EASNCFAIRHFENKFAVETLICCGLVVMNGRSSA, 9.04; in that of EASNCFAIRHFENKFAVETLICCGM, 7.56.
Still for that read-out and setting: the figure for EASNCFAIRHFENKFAVETLICCGMFQVWSFMFG is 7.13.
Still for that read-out and setting: the figure for EASNCFAIRHFENKFAVETLICCGMFRYSLGNGR is 8.58; for EASNCFAIRHFENKFAVETLICCGMIACRKGAHD it is 8.35; for EASNCFAIRHFENKFAVETLICCGNFSVLISH it is 7.65.
EASNCFAIRHFENKFAVETLICCGPLLLSEGMQP registered an amyloid nucleation score of 6.45.
Still for that read-out and setting: the entry for EASNCFAIRHFENKFAVETLICCGQLPSGWKRMV is “inactive”; for EASNCFAIRHFENKFAVETLICCGQRCGARRFLR it is “inactive”; for EASNCFAIRHFENKFAVETLICCGRPVWGPWRWV it is 5.12.

Still in this data set, the particulars now being: random library (experiment): 2.
For the sequence EASNCFAIRHFENKFAVETLICCEQETIL, the amyloid nucleation score result is “inactive”.
On the same count and under the same terms, the entry for EASNCFAIRHFENKFAVETLICCESFPFYSLQPA is “inactive”.
The same measure, in the same setting: the figure for EASNCFAIRHFENKFAVETLICCEVFGCDMAICQ is 7.68; for EASNCFAIRHFENKFAVETLICCEVQQLRDEAMM it is -0.0677.
Same read-out and setting: the entry for EASNCFAIRHFENKFAVETLICCEYFLRGPSIRL is “inactive”; for EASNCFAIRHFENKFAVETLICCF it is 6.21; for EASNCFAIRHFENKFAVETLICCFAFFMCCISSM it is “inactive”.
Regarding EASNCFAIRHFENKFAVETLICCFCFWYKNKRVL, the amyloid nucleation score is -0.255.
On the same count and under the same terms, the entry for EASNCFAIRHFENKFAVETLICCFDNMDLVKCCG is “inactive”; for EASNCFAIRHFENKFAVETLICCFEVDKLGSSAG it is 4.29; for EASNCFAIRHFENKFAVETLICCFGSTDKIHFV it is 6.77.
Still for that read-out and setting: the entry for EASNCFAIRHFENKFAVETLICCFHKDRVYIFGV is “inactive”.
EASNCFAIRHFENKFAVETLICCFHSVSKSCSRE displayed an amyloid nucleation score of 4.16.
Same read-out and setting: in the case of EASNCFAIRHFENKFAVETLICCFLR it was 4.77.
The same measure, in the same setting: the figure for EASNCFAIRHFENKFAVETLICCFQIF is 8.47; for EASNCFAIRHFENKFAVETLICCFS it is 2.37.
EASNCFAIRHFENKFAVETLICCFSDKTVLTNWV returned an amyloid nucleation score of 6.26.
In turn, EASNCFAIRHFENKFAVETLICCFSGKSMSKGWL displayed an amyloid nucleation score of 6.63.
Still for that read-out and setting: the figure for EASNCFAIRHFENKFAVETLICCFSKA is 6.93; for EASNCFAIRHFENKFAVETLICCFSLLTFATPWL it is “inactive”; for EASNCFAIRHFENKFAVETLICCFSNWSVLTETE it is 8.66.
On the same count and under the same terms, in the case of EASNCFAIRHFENKFAVETLICCFSRFHIYASFV it was “inactive”; in that of EASNCFAIRHFENKFAVETLICCFSRFLKECGSV, “inactive”.
On the same count and under the same terms, in the case of EASNCFAIRHFENKFAVETLICCFVLLNSNRAAI it was 3.17.
In turn, EASNCFAIRHFENKFAVETLICCFVVSL showed an amyloid nucleation score of 8.03.
As for EASNCFAIRHFENKFAVETLICCFWHSSPSWTSQ, the amyloid nucleation score amounted to 9.11.
The same measure, in the same setting: in the case of EASNCFAIRHFENKFAVETLICCFWK it was 6.48.
The sequence EASNCFAIRHFENKFAVETLICCFYGLLSCSLSH returned an amyloid nucleation score of -0.432.
As to EASNCFAIRHFENKFAVETLICCFYLG, the amyloid nucleation score was found to be 7.56.
Same read-out and setting: in the case of EASNCFAIRHFENKFAVETLICCFYV it was 8.27.
Still for that read-out and setting: in the case of EASNCFAIRHFENKFAVETLICCGFFATYSKWWD it was 5.46; in that of EASNCFAIRHFENKFAVETLICCGLF, 8.51.
For the sequence EASNCFAIRHFENKFAVETLICCGMVGVSWSAIY, the amyloid nucleation score entry is “inactive”.
In turn, EASNCFAIRHFENKFAVETLICCGNMYLSPYTCW came in with an amyloid nucleation score of 8.12.
EASNCFAIRHFENKFAVETLICCGPNSDVMKRDT: the amyloid nucleation score amounted to 4.96.
Same read-out and setting: in the case of EASNCFAIRHFENKFAVETLICCGRFHGRYAFYR it was “inactive”.

Still in this data set, the particulars now being: random library (experiment): 3.
Sequence EASNCFAIRHFENKFAVETLICCEPDLARQTTWG displayed an amyloid nucleation score of 0.749.
Same read-out and setting: in the case of EASNCFAIRHFENKFAVETLICCER it was “inactive”.
Regarding EASNCFAIRHFENKFAVETLICCERVGSLICSCV, the amyloid nucleation score was 0.
In the case of EASNCFAIRHFENKFAVETLICCEV, the amyloid nucleation score result is “inactive”.
Same read-out and setting: in the case of EASNCFAIRHFENKFAVETLICCFACSLNRVNGM it was 8.59.
Take EASNCFAIRHFENKFAVETLICCFEVRDPAGYAP: the amyloid nucleation score is 7.64.
On the same count and under the same terms, in the case of EASNCFAIRHFENKFAVETLICCFHWAHVCTAYV it was “inactive”; in that of EASNCFAIRHFENKFAVETLICCFMRDNVQLSKL, 5.36.
Turning to EASNCFAIRHFENKFAVETLICCFPFGFWYGILV, the amyloid nucleation score turned out to be 0.721.
Sequence EASNCFAIRHFENKFAVETLICCFPMVI returned an amyloid nucleation score of 7.17.
Take EASNCFAIRHFENKFAVETLICCFRGRGSMMACW: the amyloid nucleation score result was “inactive”.
In turn, EASNCFAIRHFENKFAVETLICCFSKYCI returned an amyloid nucleation score of 5.45.
As to EASNCFAIRHFENKFAVETLICCGAKNASPVVMR, the amyloid nucleation score entry was “inactive”.
EASNCFAIRHFENKFAVETLICCGCFGP gave an amyloid nucleation score of 9.35.
Same read-out and setting: in the case of EASNCFAIRHFENKFAVETLICCGDVPRVMWSGV it was 4.44.
EASNCFAIRHFENKFAVETLICCGEWMLTLVMVE: the amyloid nucleation score result is “inactive”.
The same measure, in the same setting: the figure for EASNCFAIRHFENKFAVETLICCGLERGRAWFDA is 6.78; for EASNCFAIRHFENKFAVETLICCGLSLYMAWDYG it is 0.675; for EASNCFAIRHFENKFAVETLICCGMLTWVCAVHS it is “inactive”.
Same read-out and setting: the entry for EASNCFAIRHFENKFAVETLICCGPCVVIVIAPP is “inactive”; for EASNCFAIRHFENKFAVETLICCGRLGSPLTMES it is 5.65; for EASNCFAIRHFENKFAVETLICCGRSTRKDAPSE it is 5.98.
